# In PubChem BioAssay AID1745853 (National Center for Advancing Translational Sciences (NCATS), 2022):
# Several values for one entry are separate records, joined by “and”; a condition that tells them apart may be missing. Equal values may be shown once. This is one part of the list. Further columns of the screen follow, without active or inactive calls.
# Assays:
# Experiment in all cases: Primary Screen for Target Class Profiling of Small Molecule Inhibitors of Methyltransferases
# [1] = molecular target: Glycine N-methyltransferase (Homo sapiens) (UniProt Q14749); settings: purified enzyme, MTase-Glo SAH luminescence; measured here: GNMT inhibition; at 40 µM; stronger effect = lower value
# Outline: (§1)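 Each enzyme was assayed with SAM and its substrate. SAH formation detected by MTase-Glo luminescence; single-point 40 uM screen[…].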
# [2] = molecular target: Guanidinoacetate N-methyltransferase (Homo sapiens) (UniProt Q14353); settings: purified enzyme, MTase-Glo SAH luminescence; measured here: GAMT inhibition; at 40 µM; stronger effect = lower value
# Outline: as §1
# [3] = molecular target: Histamine N-methyltransferase (Homo sapiens) (UniProt P50135); settings: purified enzyme, MTase-Glo SAH luminescence; measured here: HNMT inhibition; at 40 µM; stronger effect = lower value
# Outline: as §1
# [4] = molecular target: Nicotinamide N-methyltransferase (Homo sapiens) (UniProt P40261); settings: purified enzyme, MTase-Glo SAH luminescence; measured here: NNMT inhibition; at 40 µM; stronger effect = lower value
# Outline: as §1
# [5] = molecular target: Phenylethanolamine N-methyltransferase (Homo sapiens) (UniProt P11086); settings: purified enzyme, MTase-Glo SAH luminescence; measured here: PNMT inhibition; at 40 µM; stronger effect = lower value
# Outline: as §1
# % is scaled to controls: 0 for no effect and ±100 for the full control effect.
Compound,"activity change, negative = inhibition [1]","activity change, negative = inhibition [2]","activity change, negative = inhibition [3]","activity change, negative = inhibition [4]","activity change, negative = inhibition [5]"
COc1cc(/C=C/C(=O)OC2[C@H](O)CC(O)(C(=O)O)C[C@H]2O)ccc1O (stereo partly drawn),3.57%,2.34%,8.77%,-8.38%,-3.36%
CCC(C)NC(=O)c1ccc2c(=O)n(C)c3nn(CC(=O)c4cccc(OC)c4)c(=O)n3c2c1 (stereo not drawn),4.69%,1.85%,8.72%,-0.893%,7.29%
CC1(C(=O)NC2CCCCCCC2)Cn2c(ccc2-c2ccccc2)C(=O)N1CCN1CCOCC1 (stereo not drawn),1.81%,2.92%,4.66%,-5.17%,2.7%
CCC(C)NC(=O)c1ccc2c(=O)n(C)c3nnc(SCc4ccccc4F)n3c2c1 (stereo not drawn),5.49%,0.435%,6.65%,-1.74%,2.36%
COc1c(C(O)CC(C)C)ccc2c1C(=O)OCc1cc(C)cc(O)c1O2 (stereo not drawn),5.08%,2.45%,9.09%,-12.5%,4.49%
CCCCN1C(=O)c2ccc(-c3ccco3)n2CC1(C)C(=O)NC1CCCCCC1 (stereo not drawn),-6.06%,3.29%,0.274%,-5.43%,-0.51%
CC1OC(O[C@H]2CC[C@@]3(C)C(CC[C@]4(C)C3CC=C3C5CC(C)(C)CC[C@]5(C(=O)OC5OC(CO)C(OC6OC(COC7OCC(O)C(O)C7O)C(O)C(O)C6O)C(O)C5O)CC[C@]34C)C2(C)C)C(O)C(O)C1OC1OCC(OC2OCC(O)C(O)C2O)C(O)C1O (stereo partly drawn),4.07%,15%,11.1%,2.97%,1.63%
C[C@@H](NC(=O)c1ccc(C#Cc2cccc(F)c2)cn1)C(C)(C)O,-4.72%,-1.38%,8.68%,-13.5%,-2.02%
COc1ccc([C@H](C)NC(=O)c2c(C)noc2-c2cccs2)cc1,-0.454%,1.5%,-2.93%,-3.23%,10.8%
CC1=CC(=O)C(=C(C)C)CC2C(C)(O)CCC12O (stereo not drawn),3.16%,3.61%,11.7%,-11.5%,6.81%
CCOc1ccc(NS(=O)(=O)c2ccc3[nH]c4c(c3c2)CCCC4)cc1,0.621%,1.9%,2%,2.56%,3.4%
COc1cccc(CN2C(=O)c3cc4occc4n3CC2(C)C(=O)NC2CCCCC2)c1 (stereo not drawn),2.24%,3.85%,5.64%,0.085%,-0.852%
CN1C(=O)c2cc(C(=O)NC3CCN(Cc4ccccc4)CC3)nn2CC1(C)C(=O)NCc1ccccc1 (stereo not drawn),-4.06%,-4.25%,-2.05%,-8.98%,-2.84%
CCCNC(=O)N1CCC(N2CC(OCC3CC3)C23CCCCC3)CC1 (stereo not drawn),-1.18%,-3.57%,-1.6%,-5.66%,-0.947%
Cc1ccc(NC(=O)Cn2nc3n(CC(C)C)c(=O)c4ccc(C(=O)NCC(C)C)cc4n3c2=O)cc1,6.56%,0.221%,7.9%,4.18%,4.16%
CC1(C(=O)NC2CCCCC2)Cn2c(cc3occc32)C(=O)N1Cc1ccc(Cl)cc1 (stereo not drawn),-11.3%,-6.33%,-3.51%,-11.4%,-8.56%
Cc1cccc(NS(=O)(=O)c2ccc3[nH]c4c(c3c2)CCCC4)c1C,-2.76%,2.56%,1.13%,-10.4%,0.688%
CC(C)c1nc(-c2ccc(NC(=O)Nc3cccc(C(F)(F)F)c3)c3ccccc23)c2c(N)nccn12,-5.23%,-19.3%,-58%,-47.1%,-17.2%
CC(C)CCNC(=O)C1(C)Cn2nc(C(=O)NCCc3c[nH]c4ccccc34)cc2C(=O)N1C (stereo not drawn),2.88%,0%,5.71%,6.61%,1.91%
Cc1cc(=O)n(CC(=O)NC(C)CCc2ccccc2)c(N2CCOCC2)n1 (stereo not drawn),-3.83%,-4.74%,-2.7%,-7.7%,0.54%
Cc1ccc(CNS(=O)(=O)c2ccc3c(c2)n(C)c(=O)n3C)cc1,0.788%,2.94%,4.13%,3%,-0.913%
Cn1cc(-c2cc(=O)c3ccnc(NCc4ccc(F)cc4)c3o2)cn1,-10.9%,-11.4%,-4.75%,-21.4%,-13.3%
O=C(N[C@H](c1ccccc1)C1CC(O)C1)c1ccc(-n2cccn2)cc1 (stereo partly drawn),-1.61%,-2.32%,-9.66%,-7.48%,8.77%
COc1cccc(CN2C(=O)CCCCC2C(=O)NC2CCS(=O)(=O)C2)c1 (stereo not drawn),-4.43%,0.091%,-0.787%,-4.75%,-0.787%
CN(C)c1ccc(-c2nnc3n(Cc4ccc(F)cc4)c(=O)c4ccccc4n23)cc1,-18.8%,0%,0.982%,3.56%,-0.534%
CCCn1c(=O)c2ccc(C(=O)NC3CCCCC3)cc2n2c(=O)n(CC(=O)c3ccc(C)cc3C)nc12,2.86%,0%,9.52%,6.91%,8.51%
CC1CCC(C(=O)N(c2cc(C#CC(C)(C)C)sc2C(=O)O)C2CCC(O)CC2)CC1 (stereo not drawn),1.79%,23.5%,10.2%,0.519%,13.1%
C=C1CC[C@@H]2[C@](C)(CO)[C@H](O)CC[C@@]2(C)[C@@H]1C/C=C1/C(=O)OCC1OC(=O)/C(=C/CO)C(O)C[C@@H]1C(=C)CC[C@@H]2[C@](C)(CO)[C@H](O)CC[C@]21C (stereo partly drawn),0%,-16.9%,-1.79%,-27.9%,-30.6%

Compound,"activity change, negative = inhibition [1]","activity change, negative = inhibition [2]","activity change, negative = inhibition [3]","activity change, negative = inhibition [4]","activity change, negative = inhibition [5]"
CC(CCO)CCC1C2(C)CCCC(C)(C)C2CC[C@@]1(C)O (stereo partly drawn),-2.02%,15.8%,2.67%,-15.2%,8.13%
COC(=O)c1ccccc1N1C(=O)CSc2c(c3ccccc3n2C)C1C(=O)NCc1ccccc1OC (stereo not drawn),6.48%,1.67%,2.69%,1.94%,5.45%
CC(C(O)/C=C/C(C)(C)O)C1CCC2(C)C3C(=O)C=C4C(CCC(O)C4(C)C)C3(C)CCC12C (stereo not drawn),-0.177%,7.14%,8.92%,-8.25%,4.56%
CCCN1C(=O)Cc2cc(C(=O)N3CCN(c4ccccc4Cl)CC3)ccc21,-7.97%,-4.35%,-7.1%,-21.2%,-14.9%
Cc1cccc(Cn2nc3n(C(C)C)c(=O)c4ccc(C(=O)NC(C)C)cc4n3c2=O)c1,0.648%,0%,3.59%,-4.1%,3.67%
Cc1ccsc1-c1[nH]nc2ncc(-c3ccnn3C)nc12,-46.2%,-22.7%,-44.1%,-15.7%,-10.7%
O=C(CCc1cc2n(n1)CCCNC2)N1CCCC(c2nnc3ccccn23)C1 (stereo not drawn),-4.66%,-5.49%,-3.51%,-6.85%,-10.8%
CN(C)C1CCN(C(=O)c2ccc(NC(=O)Nc3ccc(-c4nc(N5CCOCC5)nc(N5CCOCC5)n4)cc3)cc2)CC1,-0.593%,12% and 8.33%,8.44%,-5.62% and -8.46%,7.02% and 1.9%
CC(C)CNC(=O)c1ccc2c(=O)n(CC(C)C)c3nn(C)c(=O)n3c2c1,5.16%,2.17%,10.7%,6.82%,7.86%
CC(C)Cn1c(=O)c2ccc(C(=O)NC3CCCC3)cc2n2c(SCC(=O)NC(C)C)nnc12,-5.11%,0.939%,-3.06%,-0.63%,-1.59%
COc1cc(NC(=O)c2cc3n(n2)CC(C)(C(=O)NC2CCCCC2)N(C)C3=O)cc(OC)c1 (stereo not drawn),1.45%,0%,4.44%,3.51%,2.15%
C[C@H]1CC[C@@]2(OC1)O[C@H]1CC3C4CC[C@H]5C[C@@H](O[C@@H]6O[C@H](CO)[C@H](O[C@@H]7O[C@H](CO)[C@@H](O)[C@H](O[C@@H]8OC[C@@H](O)[C@H](O)[C@H]8O)[C@H]7O[C@@H]7O[C@H](CO)[C@@H](O)[C@H](O)[C@H]7O)[C@H](O)[C@H]6O)[C@H](O)C[C@]5(C)C4=CC(=O)[C@]3(C)[C@H]1[C@@H]2C (stereo partly drawn),0%,6.25%,5.41%,-5.29%,7.33%
CC(C)CCNC(=O)C1(C)Cn2c(cc3ccccc32)C(=O)N1CCc1ccccc1 (stereo not drawn),5.77%,1.24%,8.37%,2.38%,2.36%
Cc1ccc(NC(=O)N2CCn3cccc3C2C)cc1Cl (stereo not drawn),-6.08%,0%,1.34%,-10.6%,-4.36%
COc1ccc(-c2noc(C(=O)O)c2[C@@H](C)NC(=O)C2CCCCC2)cc1,-4.01%,-0.842%,-3.51%,-10.1%,-2.7%
CN(C)C(=O)N(C)Cc1ccc(F)cc1,-5.54%,-8.22%,-1.49%,-18.6%,-11.9%
CCCn1c(=O)c2cc(Cl)ccc2n2c(SCC(=O)Nc3cccc(C)c3)nnc12,-1.22%,2.58%,7.62%,-3.65%,-0.843%
Cc1ccc(CNC(=O)CNC(=O)C2(C)Cn3c(nc4ccccc43)C(=O)N2C)cc1 (stereo not drawn),3.22%,1.56%,5.19%,8.5%,1.29%
O=C(NC1CCOCC1)c1ccc(OC2CCN(Cc3ccccn3)CC2)cc1,-2.57%,-4.32%,0.068%,-3.56%,-3.56%
CCCCCCCCCCC/C=C\C(C)(C)/C=C\CCCC(=O)O,-9.82%,3.59%,-3.59%,-11.8%,1.62%
COc1ccccc1NC(=O)CSc1nnc2n(CC(C)C)c(=O)c3ccccc3n12,-16.6%,-4.56%,3.76%,-18.6%,-6.56%
Cc1occc(=O)c1O[C@@H]1O[C@H](CO[C@@H]2OC[C@](O)(CO)[C@H]2O)[C@@H](O)[C@H](O)[C@H]1O,2.82%,5.22%,5.24%,-6.59%,1.52%
C[C@H]1[C@@H](O)[C@H](O)C2[C@]3(C)C([C@@H](O)[C@H]4OC(=O)[C@@H]1[C@@]24C)[C@](C)(O)C=C[C@H]3O[C@@H]1O[C@H](CO)[C@@H](O)[C@H](O)[C@H]1O (stereo partly drawn),0.461%,-1.48%,9.4%,-12.4%,2.98%
CCc1cccc(N2C(=O)c3c(C(=O)OC)ncn3CC2(C)C(=O)NC2CCCC2)c1 (stereo not drawn),-1.39%,0.165%,-13.2%,-2%,-4.23%
CCOc1ccccc1OCCN[C@H](C)Cc1ccc(OC)c(S(N)(=O)=O)c1,,5.33%,,-16.4%,5.15%
CCc1cc2c(cc3n2CC(C)(C(=O)NC2CCCCC2)N(Cc2ccc(F)cc2)C3=O)s1 (stereo not drawn),2.18%,0%,7.28%,4.15%,-5.89%
CCCN1C(=O)c2c(C(=O)Nc3c(C)cccc3C)ncn2CC1(C)C(=O)NCc1ccc(C)cc1 (stereo not drawn),-0.921%,0%,12.5%,9.94%,9.22%
